{"sequences": {"note": "Amino acid sequences for entries named in this document (tags omitted). A change or cut given only in a name is not applied to a line headed by its entry.", "UniProt P19793": "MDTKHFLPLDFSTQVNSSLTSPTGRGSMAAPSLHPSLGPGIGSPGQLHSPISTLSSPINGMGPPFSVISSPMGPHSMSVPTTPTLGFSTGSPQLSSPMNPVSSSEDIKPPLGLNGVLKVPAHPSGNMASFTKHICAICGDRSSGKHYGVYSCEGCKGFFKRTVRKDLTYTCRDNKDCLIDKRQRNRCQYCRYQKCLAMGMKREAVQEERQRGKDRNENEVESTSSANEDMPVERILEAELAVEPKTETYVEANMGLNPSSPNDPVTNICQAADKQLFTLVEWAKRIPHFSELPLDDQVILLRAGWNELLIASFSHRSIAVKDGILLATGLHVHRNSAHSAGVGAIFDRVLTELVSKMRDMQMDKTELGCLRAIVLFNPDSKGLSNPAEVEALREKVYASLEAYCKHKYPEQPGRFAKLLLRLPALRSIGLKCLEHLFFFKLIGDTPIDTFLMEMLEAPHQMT"}, "source": "paper PMC11879013", "molecules": {"B1": {"name": "FXRα2-MycTwinstrep (farnesoid X receptor isoform α2, wild type) (protein, UniProt Q96RI1-2 1-472)", "chain": "MGSKMNLIEHSHLPTTDEFSFSENLFGVLTEQVAGPLGQNLEVEPYSQYSNVQFPQVQPQISSSSYYSNLGFYPQQPEEWYSPGIYELRRMPAETLYQGETEVAEMPVTKKPRMGASAGRIKGDELCVVCGDRASGYHYNALTCEGCKGFFRRSITKNAVYKCKNGGNCVMDMYMRRKCQECRLRKCKEMGMLAECLLTEIQCKSKRLRKNVKQHADQTVNEDSEGRDLRQVTSTTKSCREKTELTPDQQTLLHFIMDSYNKQRMPQEITNKILKEEFSAEENFLILTEMATNHVQVLVEFTKKLPGFQTLDHEDQIALLKGSAVEAMFLRSAEIFNKKLPSGHSDLLEERIRNSGISDEYITPMFSFYKSIGELKMTQEEYALLTAIVILSPDRQYIKDREAVEKLQEPLLDVLQKLCKIHQPENPQHFACLLGRLTELRTFNHHHAEMLMSWRVNDHKFTPLLCEIWDVQ"}, "B2": {"name": "FXRα2, in vitro translated (protein, UniProt Q96RI1-2 1-472)", "chain": "B1 chain"}, "B3": {"name": "FXRα2^L434R-MycTwinstrep (protein, UniProt Q96RI1-2 1-472)", "chain": "B1 chain with L434R"}, "B4": {"name": "FXRα2^L415R-MycTwinstrep (protein, UniProt Q96RI1-2 1-472)", "chain": "B1 chain with L415R"}}, "key": {"[1]": {"biological_target": "SmBIT-RXRα-FLAG, split luciferase fusion (human) (UniProt P19793)", "assay": "split reporter; NanoBiT split luciferase in live HEK293T; N-terminal LgBIT and SmBIT fusions, 50 ng each; Nano-Glo Live Cell Assay; cells treated with HX531 (up to 4 uM) in Figure 2B and Supplementary Figure S2E"}, "[2]": {"biological_target": "RXRα-FLAG (retinoid X receptor α) (human) (UniProt P19793)", "assay": "co-IP; nuclear extracts of HEK293T co-transfected with FXRα2-MycTwinstrep (wt, L434R or L415R) and RXRα-FLAG; NaCl set to 0.1 M; 1 ug rabbit anti-RXRα (sc-553) overnight at 4°C, G-Sepharose beads; western blot"}, "[3]": {"biological_target": "RXRα, in vitro translated (human) (UniProt P19793)", "assay": "condition: only in the complex on the ER-2 DNA probe; native gel or EMSA; supershift with antibodies against FXR or RXRα on the 32P-labelled ER-2 DNA probe; in vitro translated FXRα2 and RXRα; 20 mM HEPES pH 7.4, 10% glycerol, 50 mM KCl, 1 mM DTT; 4% polyacrylamide gel"}, "[4]": {"biological_target": "RXRα, in vitro translated (human) (UniProt P19793)", "assay": "native gel or EMSA; supershift with antibodies against FXR or RXRα on the 32P-labelled IR-1 DNA probe; in vitro translated FXRα2 and RXRα; 20 mM HEPES pH 7.4, 10% glycerol, 50 mM KCl, 1 mM DTT; 4% polyacrylamide gel"}}, "note": "Where a chain is given by its changes, count along the chain named. Names may count otherwise. No constants are given. Whether binding was seen depends on the method and setting. For part of these data: Binding seen in cells or lysates may run through a third protein. Some entries that bind do so weakly or less than the wild type. For part of these data: Where a sequence is shown, tags or fusion partners need not be part of it.", "data": [{"molecule": "SmBIT-RXRα-FLAG, split luciferase fusion (from UniProt P19793-1 1-462)", "values": [{"measurement": "binding", "setting": "[1]", "result": "binds"}]}, {"molecule": "B1", "values": [{"measurement": "binding", "setting": "[2]", "result": "binds"}]}, {"molecule": "B2", "values": [{"measurement": "binding", "setting": "[3]", "result": "no binding"}, {"measurement": "binding", "setting": "[4]", "result": "binds"}]}, {"molecule": "B3", "values": [{"measurement": "binding", "setting": "[2]", "result": "no binding"}]}, {"molecule": "B4", "values": [{"measurement": "binding", "setting": "[2]", "result": "no binding"}]}]}
